The results in this text go back to the supplement of paper PMC12632987.

The labels stand for the following.
B1: LC3A_74_2070 (protein)
chain: KLTVEEIDRLEELAARLLALIILGEERGLFSEEEVERARELRDRLLEVLRRNGALTEAVEGGIELEAEGLALRLEKDPEEARRLLEETFEEAERLLARVE
B2: LC3A_28_1043 (protein)
chain: NELEKNAEEAIKEAEEQFKKGEEAVVTLKVPKIDTETAKKIVSETLERLIELSKKYGNKKVSVVIDFDGDQETLDAILDVAEEAEKKDPNLTVIVAYDPE
B3: LC3A_free_39_2234 (protein)
chain: SMEEIEKLIKEVAKEGGIDYEYVKSKMKEIQEVGGLSDEQMLELVKALLEAVKEGADAKEILDEILALTKELKAAGKSPEEILEALLETIRDYRNLVPLD
B4: LC3A_28_646 (protein)
chain: SALDKQLEEALAEARAARERGEPVVVTLTVPGDANQEDVDKILKAMEEIAEILKDVPGSAIIVDIERGVAQEYKDKIIDKGEEIEEKYPNVTVIIALEEE
B5: LC3A_free_8_2539 (protein)
chain: SVQKATTAVTAKLDEAEEELRKKAEELGLDRLDILDLELLVGEVIAEVIGLSDKPISEIRKAVEEGMAEVIKYAAELSPELAELAEKAKKEILAILDELE
B6: LC3A_3_1910 (protein)
chain: MEEKIKELRKQAKELGHSEEVIKLAEEAAKLLLKVGNEEGFELLKKAVKALAKLSEADQLAFLKDLLAELKANANDKEKQLAAAKDFLRLAENAAEIIEI
B7: LC3A_28_983 (protein)
chain: MDPREQVEELIKKAKEAAAKGEATVFTITVTSTATEEDIELITEGLKEIAEILKDVKGSAIIVDVESGVPEEYIDKIAETMEEIEKANPNVTTIIALDED
B8: LC3A_59_2013 (protein)
chain: SEEVEKYVKEAYEKFDDPEKFYETVKKMVEELLKKYSPEELLELVEKEAEKLIEEGKDPKKMQAIVDSVKAVLEIEDEEEKKEEIKLILLEAEIEEIDEE
B9: LC3A_free_46_2327 (protein)
chain: VLVEIEIDLLHENEEKMKKAVEEIEKSIKKIAEKYNAKVNIKVEISKDEDGSYFARIKIEVEAETKEKAQKILTEIIDEIEKIAKKYDISVIISYEIIEK
B10: LC3A_28_868 (protein)
chain: SRIDAIVAAFRAELEADAAEGETMVGHVHISSSMSLEEAVELMERVLAVAREFVERTGRKVVIVIDHDGNQEVLDAVMELAERAEEENPLITVIIALSDE
B11: LC3A_3_1850 (protein)
chain: MEEIIEEIKKLLEELGRSEETIEAALELAELLKERGYEEALKELLEKLKELKDLPDEILLAMFEDILREVKTKDLSEEEVIELIKKEAETAKNEAEIIEL
B12: LC3A_3_1833 (protein)
chain: LEAEVAALLELLRAAGHSEEALEAVRRLAEALAARGYEEALRTFIELLRRLVHLPSELLLELAREALELVETEDLSEEELTARIRELARLYENEGEIEEL
B13: LC3A_3_1637 (protein)
chain: MEEEIKARAERLKAAGHSQETIDAFLETANLLKEKGYYEALKTLIEEMDKLKDLPDEILLDMLKEVKAVVEEPNLTEEEVIKKIKEIARVARNEGEIIEL
B14: LC3A_132_317 (protein)
chain: MEEKYEELRKRAEELLEEAKANINNLEKVKELFEEIRKILEEAQKEVTPEQQAELFDEVADKLDEISLAADAAGQEEVADLADGLAVEAAALSIRAEEKI
B15: LC3A_3_1535 (protein)
chain: MDAEIEAALAELRAAGKSDETLAAFRAAADALKEKGYDEALRTFIAEMRELIDLPDELLLDFALDVLELVETEDISEEELIKRIRELARTIRNEGEIIEL
B16: LC3A_28_784 (protein)
chain: SPLKKNVEEALKEAKKAKEKGESVVITIKVPGDATEEDVEYVIKGLEEIAKILEGVKDQAIVIDVDADVAPEHITKLAEKADEIEEKYPNVTVILALEEK
B17: LC3A_102_164 (protein)
chain: DLEKVVKELTKEALAAMDKAIAAEKSLSPEQKAQARALATTAVNAAAENFLTEAKHGFTDIEAEDTRDDALAALAKINPKLAAALKKLLEEMEKKVKEAA
B18: LC3A_3_1366 (protein)
chain: MEEKIEELLEYLKKEGKSEETLEAVRKTLEALIEKGYEEAAETFIELMKKLSHLPDELLLDFAKEVLEKVENEDLSEEELIEFIKEEAKIAENEAEIIEL
B19: LC3A_free_46_2432 (protein)
chain: YKVNIDIDLLHEDKEVLEKAVKEIVERIKEIAKKHGAEIKIETEISKLEDGSYFAKINATITVDDEETAKKIADEIIDAVEEIAEKYNVSYIISVEIEEK
B20: LC3A_free_46_2413 (protein)
chain: YRVRVLVDTRAAPKEKIEATVKELVEGLREIAARHGARVRIEVEIIENEDGTYSAIIRAEIEAPDLATARAIAAEVGRLIDEIDAKTGLVAMYSIDIEEA
B21: LC3A_13_341 (protein)
chain: TVTLEVETAEELRERGFAALAAHPGETIRITVTVRDEEEAEAIAEVLAELVRAAAEAGSDLEITIRGPRDLVLYVALEVGSEAYEHIDKVTVTITEEVVE
B22: LC3A_127_179 (protein)
chain: STKEEALKLAEKIIELAEKMLDEDTSLEERIELAKKIIEYAKELKKLKPELKEDVDELIELAKEVLKRFEAGEELDEIIEMLIEGIIVTAELIKLKLEEE
B23: LC3A_28_790 (protein)
chain: SKLRENAEKALKEAKEAAAKGISQVITIEVGGDATEEDIDYVIEKLKEIAEVLKDIEGQAIIIDVGKGVSQEHIDKLMKAAEEIEKKYPNVTVIIALEER
B24: LC3A_free_46_2386 (protein)
chain: AEGYLYALAGPADLETLEKLAKEVKKAAEEVAKEYGVEVEVKVEIIKEEDGTYELFIEVKIKGETLETVEKALDAIEERIEEIAKKHGVKVASIISYEED
B25: LC3A_147_496 (protein)
chain: ATVEVDVLVKDKEAAEKVVEEFKKLVEKLKKQGIEVELEVEIEQISPDTWYVKITIKIKAKTEEEEKKVANEVVDEIEKIEEKYKDKILASLISVEIEEK
B26: LC3A_147_453 (protein)
chain: KTYVITVDALFRNDPALAAEVEAEIRAIAEENGAEVEVEREEIQETPTTTLYYLRVTLRTEDEEKALAAEKAVSELLDRVAKEHPEKFLGAIISFEVEED
B27: LC3A_free_39_2245 (protein)
chain: SAAALEAARAEILELAAEEGEEALALAEEVLAILAGDVAATQRLLELLKEIKEDGGDLLAVLKEMVAVARELEAAGASQEEINAAIVEEAEDHLNLIPLD
B28: LC3A_28_1174 (protein)
chain: MATPEELAAALAEARAARAAGEPATVRIRVGGGTTPEETERVIATMREIAELLRDVPGAAILVDIDSGVPQEHIDRLLEEGERIEEEYPNVTVIFALDEE
B29: LC3A_3_1636 (protein)
chain: MEEKIEAREKALRAAGHSEETIEAFRETAELLKEKGYYEALETLIEKMEELLDLPDEILLDMLEEVKRVVEEPDKTEEEVIEEIERIATVARNEGEIEEL

In all, about 2,300 sequences were measured (“median log2 fold change of GCK-ALFA target abundance (FLAG IP / Myc IP barcode read proportion)”: median about 0.095, lowest 2% from about -0.47 on). The list shows a part of the results.

The target in this experiment is MAP1LC3A, Q9H492. Description: median log2 fold change of GCK-ALFA target abundance (FLAG IP / Myc IP barcode read proportion) (log2 ratio); each designed protein is fused to an ALFA-tag nanobody in HEK293 cells to bring the named protein to FLAG-tagged glucokinase (GCK); Myc marks an untargeted standard; higher = target protein stabilised (more abundant). The conditions noted are these: target protein: 3xFLAG-MCP-GCK-ALFA reporter; HEK293 landing pad (RPLP). In outline: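 HEK293 landing-pad cells received a recombined binder library fused to the ALFA nanobody and were induced with 2 μg mL^−1 doxycycline, then transfected with a plasmid encoding a FLAG-tagged target and a Myc-tagged standard. Lysates were collected after 48 h for anti-FLAG and anti-Myc immunoprecipitation, and the circular RNA barcodes were reverse transcribed, amplified and sequenced. Target abundance for each binder is the median log2 ratio of FLAG to Myc barcode read proportions. Barcodes had to reach a proportion of at least 10^−7 in both replicates, each binder needed at least 3 barcodes per replicate, a pseudocount of 10^−6 was applied, and the two replicates were pooled.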
On to B1, for which the “median log2 fold change” value is -0.112.

Take B2: the “median log2 fold change” value is -0.11.

For the molecule B3, the “median log2 fold change” value turned out to be 0.245.

With B4, the “median log2 fold change” value is -0.0828.

In the case of B5, the “median log2 fold change” value turned out to be 0.1.

Regarding B6, the “median log2 fold change” value came to 0.319.

With B7, the “median log2 fold change” value is -0.2.

With B8, the “median log2 fold change” value is 0.222.

Regarding B9, the “median log2 fold change” value is -0.0206.

In the case of B10, the “median log2 fold change” value was -0.188.

Regarding B11, the “median log2 fold change” value stood at 0.0641.

For the molecule B12, the “median log2 fold change” value was 0.276.

B13: the “median log2 fold change” value was 0.322.

For B14, the “median log2 fold change” value is -0.303.

With B15, the “median log2 fold change” value came to 0.049.

As for B16, the “median log2 fold change” value amounted to 0.137.

Regarding B17, the “median log2 fold change” value is 0.00839.

Turning to B18, the “median log2 fold change” value was determined as 0.0931.

Turning to B19, the “median log2 fold change” value is 0.0908.

As to B20, the “median log2 fold change” value was found to be 0.000633.

Turning to B21, the “median log2 fold change” value stood at 0.0625.

On to B22, for which the “median log2 fold change” value is -0.226.

For B23, the “median log2 fold change” value is 0.203.

For the molecule B24, the “median log2 fold change” value is 0.194.

Take B25: the “median log2 fold change” value was -0.154.

As for B26, the “median log2 fold change” value was -0.42.

As to B27, the “median log2 fold change” value was 0.146.

Regarding B28, the “median log2 fold change” value came out at 0.08.

B29: the “median log2 fold change” value stood at 0.158.
